Experimental data from publication PMC12624062.
Results are given in words; binding and its absence hold for the method and conditions named. Binding seen in cells or lysates may run through a third protein.

Molecular target: T1, PNLDC1 (mouse), B2RXZ1
T1 chain: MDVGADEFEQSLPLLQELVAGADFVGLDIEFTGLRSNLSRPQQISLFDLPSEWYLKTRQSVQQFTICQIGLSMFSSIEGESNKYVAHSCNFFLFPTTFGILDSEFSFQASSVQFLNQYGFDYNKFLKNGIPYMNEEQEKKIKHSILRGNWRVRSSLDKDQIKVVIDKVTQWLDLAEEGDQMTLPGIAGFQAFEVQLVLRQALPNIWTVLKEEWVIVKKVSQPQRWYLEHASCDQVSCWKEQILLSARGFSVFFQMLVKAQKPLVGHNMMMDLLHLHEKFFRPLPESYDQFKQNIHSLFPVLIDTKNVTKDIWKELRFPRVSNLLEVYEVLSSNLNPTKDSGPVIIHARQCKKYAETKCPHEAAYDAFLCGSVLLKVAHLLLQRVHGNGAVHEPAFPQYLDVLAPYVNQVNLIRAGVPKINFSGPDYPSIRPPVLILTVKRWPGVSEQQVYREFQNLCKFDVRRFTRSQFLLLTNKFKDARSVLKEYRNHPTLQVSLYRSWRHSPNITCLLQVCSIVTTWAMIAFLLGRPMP
Test: co-IP; 293T cells transiently transfected with tagged mouse proteins; lysis in 150 mM NaCl, 50 mM Tris-HCl pH 7.4, 1% Triton X-100, 1 mM EDTA; Protein A/G agarose beads and antibodies overnight at 4 °C; washes with 300 mM NaCl; Western blot for Flag, HA, GFP; some panels with the methyltransferase inhibitor MTA
Details: remark: other sources report otherwise

- binding: no binding
B1: PIWIL1, Q9JMB7 1-862 (protein)
chain: MTGRARARARGRARGQETVQHVGAAASQQPGYIPPRPQQSPTEGDLVGRGRQRGMVVGATSKSQELQISAGFQELSLAERGGRRRDFHDLGVNTRQNLDHVKESKTGSSGIIVKLSTNHFRLTSRPQWALYQYHIDYNPLMEARRLRSALLFQHEDLIGRCHAFDGTILFLPKRLQHKVTEVFSQTRNGEHVRITITLTNELPPTSPTCLQFYNIIFRRLLKIMNLQQIGRNYYNPSDPIDIPNHRLVIWPGFTTSILQYENNIMLCTDVSHKVLRSETVLDFMFNLYQQTEEHKFQEQVSKELIGLIVLTKYNNKTYRVDDIDWDQNPKSTFKKADGSEVSFLEYYRKQYNQEITDLKQPVLVSQPKRRRGPGGTLPGPAMLIPELCYLTGLTDKMRNDFNVMKDLAVHTRLTPEQRQREVGRLIDYIHKDDNVQRELRDWGLSFDSNLLSFSGRILQSEKIHQGGKTFDYNPQFADWSKETRGAPLISVKPLDNWLLIYTRRNYEAANSLIQNLFKVTPAMGIQMKKAIMIEVDDRTEAYLRALQQKVTSDTQIVVCLLSSNRKDKYDAIKKYLCTDCPTPSQCVVARTLGKQQTVMAIATKIALQMNCKMGGELWRVDMPLKLAMIVGIDCYHDTTAGRRSIAGFVASINEGMTRWFSRCVFQDRGQELVDGLKVCLQAALRAWSGCNEYMPSRVIVYRDGVGDGQLKTLVNYEVPQFLDCLKSVGRGYNPRLTVIVVKKRVNARFFAQSGGRLQNPLPGTVIDVEVTRPEWYDFFIVSQAVRSGSVSPTHYNVIYDSSGLKPDHIQRLTYKLCHVYYNWPGVIRVPAPCQYAHKLAFLVGQSIHREPNLSLSNRLYYL
